Some of the results follow. Antibody binding of pooled human sera (four to six donors per pool; dilution not stated) to peptides of the Trypanosoma cruzi antigen TSSA on microarrays. Quantile-normalised fluorescence in arbitrary units, mean of duplicate arrays; higher = more binding. No active / inactive call. The uninfected pools are read here as the healthy donors of the same country. The strongest signals lie near the top of the scale (about 60,000).
The sequences below were run on pooled sera of uninfected people, Brazil (assay: antibody binding signal (normalised fluorescence) (arbitrary fluorescence units); higher = stronger serum antibody binding to peptide).
Procedure: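 Microarray of overlapping 15-residue peptides of the four Trypanosoma cruzi TSSA reference variants and 8- to 13-residue peptides of TSSAII 24-62, probed with one serum pool per country.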
Sequence PSPSGASSGEAEASS has an antibody binding signal of 125. NGGSTSSTP showed an antibody binding signal of 171. In the case of APSQPGASSGEAE, the antibody binding signal is reported as 99.8. Work on ENKPATGEAPSQPGA yielded an antibody binding signal of 394. ATGEAPSQPGASS showed an antibody binding signal of 213. Sequence TSSTPPSGTE has an antibody binding signal of 107. Work on KKAAAGEAPSPSGAS yielded an antibody binding signal of 80.8. For KPATGEAPS, the antibody binding signal was 188. PSGTENKPAT gave an antibody binding signal of 682. Work on NKPATGEAPSQ yielded an antibody binding signal of 315. With DKKTAAGGTPSPSGA the antibody binding signal was 1250. Sequence SSTPPSGTE has an antibody binding signal of 96.1. In the case of SGEAEASSNKNDGSL, the antibody binding signal is reported as 118. With GEAPSPSGASSGEAE the antibody binding signal was 89.9. TGEAPSQPGASSGEA was tested, and the antibody binding signal was 147. Sequence LSACTTANGGSTSST has an antibody binding signal of 231. For ANGGSTSSTPP, the antibody binding signal was 254. Sequence TSSTPPSGTENKP has an antibody binding signal of 649. With SQPGASSG the antibody binding signal was 328. NKPATGEA showed an antibody binding signal of 314. In the case of TSSTPPGTDKKTAAG, the antibody binding signal is reported as 127. Sequence GTENKPATGEAPS has an antibody binding signal of 374. KPATGEAPSQ showed an antibody binding signal of 213. PPSGTENKPATGE showed an antibody binding signal of 486. TENKPATG was tested, and the antibody binding signal was 277. For LTACTTANGGSTSST, the antibody binding signal was 342. Work on STPPGTDKKTAAGGT yielded an antibody binding signal of 1700. With PPSGTENKPATG the antibody binding signal was 1100. APSPSGASSGEAEAS was tested, and the antibody binding signal was 152. With GASSGEAEAS the antibody binding signal was 104. APSQPGASSG showed an antibody binding signal of 454. TSSTPPSGT gave an antibody binding signal of 209. SGTDKKTAAGEAPSP was tested, and the antibody binding signal was 274. ANGGSTSSTPPSGTE was tested, and the antibody binding signal was 185. EAPSQPGASS showed an antibody binding signal of 162. With SSGEAEASSNKNDGS the antibody binding signal was 150. With ANGGSTSST the antibody binding signal was 313. With PATGEAPS the antibody binding signal was 178. Work on TENKPATGEAPSQPG yielded an antibody binding signal of 357. Work on AGEAPSPSGASSGEA yielded an antibody binding signal of 138.

Reference: the supplement of paper PMC10441789
